{"source": "paper PMC4336329", "about": "(PLoS ONE, 2015)", "note": "In all, about 310,000 compounds went through this assay and about 2,200 (0.71%) showed an effect of 50% or more. The effect is printed as a negative number. The list shows a part of the results.", "data": [{"biological_target": "human ether-à-go-go-related gene (hERG) potassium channel (human, UniProt Q12809)", "sequence (Q12809 whole entry, looked up)": "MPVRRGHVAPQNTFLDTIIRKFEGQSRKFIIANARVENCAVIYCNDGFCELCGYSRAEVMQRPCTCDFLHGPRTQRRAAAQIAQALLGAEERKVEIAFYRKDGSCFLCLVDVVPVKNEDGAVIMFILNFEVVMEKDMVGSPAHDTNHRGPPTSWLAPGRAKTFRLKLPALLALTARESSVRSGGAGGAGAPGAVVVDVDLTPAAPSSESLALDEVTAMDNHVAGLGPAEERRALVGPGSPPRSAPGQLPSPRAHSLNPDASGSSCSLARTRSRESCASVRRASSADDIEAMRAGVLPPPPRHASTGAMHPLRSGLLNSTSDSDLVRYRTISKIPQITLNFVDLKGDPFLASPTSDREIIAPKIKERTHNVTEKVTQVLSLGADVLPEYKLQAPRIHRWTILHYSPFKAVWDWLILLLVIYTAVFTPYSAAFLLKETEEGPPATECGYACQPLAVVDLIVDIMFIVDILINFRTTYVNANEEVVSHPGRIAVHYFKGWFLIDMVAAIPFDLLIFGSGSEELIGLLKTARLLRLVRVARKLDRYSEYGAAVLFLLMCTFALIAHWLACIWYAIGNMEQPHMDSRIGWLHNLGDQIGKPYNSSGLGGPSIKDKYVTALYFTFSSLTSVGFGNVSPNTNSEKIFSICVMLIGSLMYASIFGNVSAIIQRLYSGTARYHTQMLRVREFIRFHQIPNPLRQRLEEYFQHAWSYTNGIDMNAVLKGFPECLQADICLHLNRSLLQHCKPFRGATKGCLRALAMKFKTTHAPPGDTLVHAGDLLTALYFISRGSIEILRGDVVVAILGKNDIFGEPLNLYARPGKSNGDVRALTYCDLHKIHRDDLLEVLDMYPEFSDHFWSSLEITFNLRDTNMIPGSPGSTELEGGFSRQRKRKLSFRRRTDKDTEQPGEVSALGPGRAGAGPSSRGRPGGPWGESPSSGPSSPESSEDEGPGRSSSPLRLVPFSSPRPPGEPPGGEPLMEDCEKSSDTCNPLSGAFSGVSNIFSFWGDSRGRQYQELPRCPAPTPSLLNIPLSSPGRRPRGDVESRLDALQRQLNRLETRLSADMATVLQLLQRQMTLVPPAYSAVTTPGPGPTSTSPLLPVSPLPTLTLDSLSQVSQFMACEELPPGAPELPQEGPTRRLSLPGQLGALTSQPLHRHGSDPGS", "test": "primary screen, population patch clamp on CHO cells stably expressing hERG", "units": {"hERG current change (%, negative = inhibition) at 1uM": "%"}, "values": [{"smiles": "COc1ccccc1C(c1nnnn1C(C)(C)C)N1CCN(Cc2ccncc2)CC1", "note": "(centres unmarked)", "hERG current change (%, negative = inhibition) at 1uM": 10.2}, {"smiles": "CN(C)c1cc[n+](CC(=O)Nc2cccc([N+](=O)[O-])c2)cc1.[Cl-]", "hERG current change (%, negative = inhibition) at 1uM": 13.1}, {"smiles": "CCC(C)(C)NC(=O)c1cc(S(=O)(=O)N2CCCCC2)ccc1N1CCOCC1", "hERG current change (%, negative = inhibition) at 1uM": 5.04}, {"smiles": "CCN(C(=O)c1c(C)noc1C)c1c(N)n(Cc2ccccc2)c(=O)[nH]c1=O", "hERG current change (%, negative = inhibition) at 1uM": 9.94}, {"smiles": "COc1cc(C(=O)Oc2ccc3ccc(O)cc3c2)cc(OC)c1OC", "hERG current change (%, negative = inhibition) at 1uM": 7.69}, {"smiles": "Nc1ccc(-n2nncc2-c2ccccc2)cc1", "hERG current change (%, negative = inhibition) at 1uM": 9.76}, {"smiles": "CCCCC[C@H]1CN(C2CCCCC2)C(=O)[C@@H]1CC(=O)NCc1ccccc1", "hERG current change (%, negative = inhibition) at 1uM": -13.9}, {"smiles": "O=C(CSc1nnc(-c2ccccc2)n1-c1ccccc1)N1c2ccccc2Sc2ccccc21", "hERG current change (%, negative = inhibition) at 1uM": 8.4}, {"smiles": "O=S(=O)(Nc1ccc(N2CCCCC2)cc1)c1ccccc1", "hERG current change (%, negative = inhibition) at 1uM": -2.09}, {"smiles": "O=C1CCC(C(=O)N2CCCCCCC2)CN1Cc1cccc(C(F)(F)F)c1", "note": "(centres unmarked)", "hERG current change (%, negative = inhibition) at 1uM": 4.81}, {"smiles": "COc1ccccc1C(=O)NCCC(=O)NC(C)CCc1ccccc1", "note": "(centres unmarked)", "hERG current change (%, negative = inhibition) at 1uM": 5.17}, {"smiles": "COc1cc(NC(=O)N[C@@H](Cc2c[nH]c3ccccc23)C(=O)O)c(C(=O)O)cc1OC", "hERG current change (%, negative = inhibition) at 1uM": 14.1}, {"smiles": "CCOc1ccc(NC(=O)NC23CC4CC(CC(C4)C2)C3)cc1", "hERG current change (%, negative = inhibition) at 1uM": 3.43}, {"smiles": "CCOC(=O)C1(Cc2ccc(Cl)cc2)CCN(C(C)Cc2ccc(O)c(OC)c2)CC1", "note": "(centres unmarked)", "hERG current change (%, negative = inhibition) at 1uM": -7.39}, {"smiles": "COc1ccc(C(=O)N2CC3(C)C4CCC3(C)C2(C#N)C4)cc1OC", "note": "(centres unmarked)", "hERG current change (%, negative = inhibition) at 1uM": 2.85}, {"smiles": "C/C(CC1CC(C)OC1=O)=N\\NC(N)=S", "note": "(centres unmarked)", "hERG current change (%, negative = inhibition) at 1uM": 10.9}, {"smiles": "CCC(C)[C@H](NC(=O)OC(C)(C)C)C(=O)N/N=C/C1=Cc2ccccc2OC1", "note": "(some centres unmarked)", "hERG current change (%, negative = inhibition) at 1uM": -5.83}, {"smiles": "COc1ccc(N2C(=O)C(CC(=O)Nc3ccc(F)cc3)N(CCc3cccs3)C2=O)cc1", "note": "(centres unmarked)", "hERG current change (%, negative = inhibition) at 1uM": 12}, {"smiles": "COc1ccc2cc1Oc1ccc(cc1)C[C@H]1c3c(cc4c(c3Oc3cc5c(cc3OC)CCN(C)[C@@H]5C2)OCO4)CCN1C", "hERG current change (%, negative = inhibition) at 1uM": 0.351}, {"smiles": "Cc1cccc(N2C(=O)C3C4CC(=O)C(c5ccccc54)C3C2=O)c1C", "note": "(centres unmarked)", "hERG current change (%, negative = inhibition) at 1uM": 6.33}, {"smiles": "CS(=O)(=O)N(CC(=O)NCc1ccccc1)C1CCCCC1", "hERG current change (%, negative = inhibition) at 1uM": -0.528}, {"smiles": "Cc1cc(OCCCn2ccnc2)cc(C(C)C)c1", "hERG current change (%, negative = inhibition) at 1uM": 11.1}, {"smiles": "Cc1ccc(S(=O)(=O)N(C)C)cc1NC(=O)C(C)OC(=O)C1CCCC1", "note": "(centres unmarked)", "hERG current change (%, negative = inhibition) at 1uM": -24.6}, {"smiles": "CCOc1cc(/C=N/NC(=O)CSc2nnc(C)s2)ccc1OCc1ccccc1Cl", "hERG current change (%, negative = inhibition) at 1uM": 6.83}, {"smiles": "CNc1ncc(C(=O)c2ccc(Cl)cc2)s1", "hERG current change (%, negative = inhibition) at 1uM": 3.44}, {"smiles": "Cn1c(=O)c(=O)n(C)c2cc(N3CCOCC3)c(NS(=O)(=O)c3ccc(Br)cc3)cc21", "hERG current change (%, negative = inhibition) at 1uM": 7.16}, {"smiles": "Cc1onc(-c2ccccc2Cl)c1C(=O)NCc1ccc(S(N)(=O)=O)cc1", "hERG current change (%, negative = inhibition) at 1uM": 15.5}, {"smiles": "CCOc1ccc(Nc2nc(N)nc(CSC(=S)N3CCOCC3)n2)cc1", "hERG current change (%, negative = inhibition) at 1uM": 0.127}, {"smiles": "CCCCOC(=O)C1CN(c2ccccc2)N=C1C(=O)OCC", "note": "(centres unmarked)", "hERG current change (%, negative = inhibition) at 1uM": 10.5}, {"smiles": "CCOc1ccc(N(C)C(=O)CCc2nnc3ccc(NCc4ccco4)nn23)cc1", "hERG current change (%, negative = inhibition) at 1uM": 12.7}, {"smiles": "O=C(Nc1ccc(OCC(=O)N2CCOCC2)cc1)c1cc(F)c(F)cc1Cl", "hERG current change (%, negative = inhibition) at 1uM": 16.1}, {"smiles": "C/C(Cc1ccccc1)=N\\NC(=O)c1cc(C(C)(C)C)[nH]n1", "hERG current change (%, negative = inhibition) at 1uM": 11.4}, {"smiles": "CSc1nc(SCC(N)=O)c2c3c(sc2n1)CN(C)CC3", "hERG current change (%, negative = inhibition) at 1uM": 5.66}, {"smiles": "COCC(=O)Nc1cc(=O)n(C)c(=O)n1C", "hERG current change (%, negative = inhibition) at 1uM": 8.4}, {"smiles": "Cc1ccc(-c2nc3ncccc3o2)cc1N", "hERG current change (%, negative = inhibition) at 1uM": 14.2}, {"smiles": "CCCc1cc(=O)oc2c(C)c(O[C@@H]3O[C@H](CO)[C@@H](O)[C@H](O)[C@H]3O)ccc12", "hERG current change (%, negative = inhibition) at 1uM": 11.6}, {"smiles": "CC(C)(O)P(=O)(O)CCc1ccccc1", "hERG current change (%, negative = inhibition) at 1uM": 20.4}, {"smiles": "Cc1ccccc1OCC(=O)N/N=C/c1cn(Cc2ccccc2)c2ccccc12", "hERG current change (%, negative = inhibition) at 1uM": 8.75}, {"smiles": "O=C(CCSc1nnc(-c2ccco2)o1)Nc1ccccc1", "hERG current change (%, negative = inhibition) at 1uM": 3.65}, {"smiles": "CC(C)CC(NC(=O)C(NC(=O)C1OC2OC(C)(C)OC2C2OC(C)(C)OC12)C(C)C)C(=O)O", "note": "(centres unmarked)", "hERG current change (%, negative = inhibition) at 1uM": 12}, {"smiles": "Cc1ccc2sc(N(CCCN(C)C)C(=O)c3ccc(S(=O)(=O)N4CCCCCC4)cc3)nc2c1C.Cl", "hERG current change (%, negative = inhibition) at 1uM": 7.51}, {"smiles": "O=C(NC(CC1CCCCC1)C(=O)O)c1ccccc1", "note": "(centres unmarked)", "hERG current change (%, negative = inhibition) at 1uM": 12.1}, {"smiles": "Fc1ccccc1Cc1noc(CN2CCN(C/C=C/c3ccccc3)CC2)n1", "hERG current change (%, negative = inhibition) at 1uM": -40.3}, {"smiles": "Cn1c(SCC(=O)N2CCCCC2)nnc1-c1ccc(S(=O)(=O)N2CCOCC2)cc1", "hERG current change (%, negative = inhibition) at 1uM": -14.4}, {"smiles": "CCN(CC)CCNC(=O)Cn1cnc2sc(C)c(S(=O)(=O)N3CCOCC3)c2c1=O", "hERG current change (%, negative = inhibition) at 1uM": 11.4}, {"smiles": "O=[N+]([O-])c1ccc(N2CCN(c3ccc(F)cc3)CC2)cc1", "hERG current change (%, negative = inhibition) at 1uM": 5.71}, {"smiles": "CC(C(=O)Nc1cc(Cl)cc(Cl)c1)N1CCCC1", "note": "(centres unmarked)", "hERG current change (%, negative = inhibition) at 1uM": 15.1}, {"smiles": "CCCn1c(CCc2ccccc2)nnc1SCC(=O)N1CCCC1", "hERG current change (%, negative = inhibition) at 1uM": -4.96}, {"smiles": "COc1ccc(-c2csc(Nc3cccnc3)n2)cc1OC", "hERG current change (%, negative = inhibition) at 1uM": 9.42}, {"smiles": "CC(=O)Nc1nccc(-c2cc(-c3ccccc3)no2)n1", "hERG current change (%, negative = inhibition) at 1uM": 10.6}, {"smiles": "COC(=O)c1ccc(N)c(N=CC2=C(O)CC(C)(C)CC2=O)c1", "hERG current change (%, negative = inhibition) at 1uM": 12.2}, {"smiles": "CCOc1ccc(C(=O)OCC(=O)N2CC(C)OC(C)C2)cc1OCC", "note": "(centres unmarked)", "hERG current change (%, negative = inhibition) at 1uM": 13.1}, {"smiles": "O=C(OCC(=O)N1CCc2ccccc21)c1ccccc1F", "hERG current change (%, negative = inhibition) at 1uM": 11.6}, {"smiles": "O=C(c1ccco1)N1CCC(c2nc(-c3ccc(F)cc3)no2)CC1", "hERG current change (%, negative = inhibition) at 1uM": -29.8}, {"smiles": "COc1ccc(C(=O)C2CCCN(S(=O)(=O)C(C)C)C2)c(C)c1", "note": "(centres unmarked)", "hERG current change (%, negative = inhibition) at 1uM": 6.13}, {"smiles": "COc1cccc(C(=O)Nc2cccc3cccnc23)c1OC", "hERG current change (%, negative = inhibition) at 1uM": 19.1}]}]}
